Data: PubChem BioAssay AID1347416 (National Center for Advancing Translational Sciences (NCATS), 2020)
Out of some 4,100 compounds screened, about 1,600 (39%) were called active. This list was built around the results that the source calls inconclusive (neither active nor inactive); the mix of calls is not that of the screen. The call rests on the fitted dose curve; in most records, active means well fitted inhibition curve with a large enough effect; inconclusive means small, poorly fitted or top-dose-only effect; inactive means no such curve, though single readings can be large or run the other way. A potency beside an inconclusive call is a rough fit, not a confirmed value.

Assay: qHTS Validation assay for Inhibitors of Plasmodium falciparum Dd2 growth in vitro; further: nearly all actives have a fitted effect of over 70% in size
Conditions: P. falciparum Dd2 in RBCs, SYBR Green growth, 72 h; activity change, negative = inhibition: at 28.7 µM (top of the series) unless noted
Method in brief: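 P. falciparum Dd2-infected red blood cells (2.5% hematocrit, 0.3% parasitemia) grown 72 h at 37 °C under 5% O2 with compounds in a titration, 29 uM to 0.5 nM final. Growth read as SYBR Green-1 fluorescence after ~16 h lysis; artesunate 300 nM as positive control.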
On the % scale 0 is the no-effect control and ±100 the full control effect; potency means the concentration at half of the fitted maximal effect; tags describe the fitted curve by direction and shape.

Potency, inconclusive:
Brc1ccc2[nH]c3c(N4CCc5ccccc5C4)ncnc3c2c1 21.1 µM [inhibitor, single point]
CC(=O)NCCC(=O)Nc1cc(S(=O)(=O)N2CCCCC2)ccc1N1CCCCC1 7.5 µM [inhibitor, partial curve]
Cc1nc2ccc(C(=O)N3CCN(c4ccccc4)CC3)cc2s1 23.7 µM [inhibitor, single point]
O=C(Nc1ccncc1)Nc1ccc(Cl)cc1Cl 26.6 µM [inhibitor, single point]
COc1ccc(NC(=O)N2CCOc3ccc(CN4CCc5ccccc5C4)cc3C2)cc1 21.1 µM [inhibitor, single point]
O=C1CCC2(C(=O)NCCN3CCCCC3)CCCC=C2N1C1CCCC1 (stereo unspecified) 5.96 µM [inhibitor, partial curve, poor fit]
CN(C)c1ccc(Nc2ncncc2-c2nc(-c3ccccc3)no2)cc1 21.1 µM [inhibitor, single point]
COc1cccc(-c2cc3c(=O)n(CCNC(=O)c4ccc(C(C)(C)C)cc4)ccn3n2)c1 21.1 µM [inhibitor, single point]
O=C1NCCCCCCN(C(=O)CCC2CCCC2)[C@H]2C[C@H](c3nc(Cc4ccccc4)no3)C[C@@H]12 21.1 µM [inhibitor, single point]
CC1CCN(S(=O)(=O)c2ccc3c(ccc(=O)n3CC(=O)Nc3ccc(C(C)C)cc3)c2)CC1 13.3 µM [inhibitor, single point]
COc1ccc(Nc2cc(C)c3ccc(O)cc3n2)cc1 0.944 µM [inhibitor, full curve, poor fit]
CN1Cc2ccc(NCc3ccccc3)nc2C(C)(C(=O)NCc2ccccc2)C1 (stereo unspecified) 30.6 µM [inhibitor, single point]
Cc1nn(CCC(=O)N[C@H]2CC[C@H]2NC2CCCCC2)c(C)c1C 6.68 µM [inhibitor, partial curve]
O=C(NCCOc1ccccc1)c1cnc2c(c1)N(C(=O)Cc1ccc(O)cc1)CCC2 19.3 µM [inhibitor, single point]
CCc1ccccc1OCC(=O)Nc1cc(S(=O)(=O)N(CC)CC)ccc1N1CCOCC1 7.5 µM [inhibitor, single point]
Cc1cc(Br)ccc1NC(=O)c1cn(C2CCCC2)c(=O)c2c1c1ccccc1n2C 23.7 µM [inhibitor, partial curve, poor fit]
Cc1ccc(CN2CC(Oc3ccc(-c4noc(-c5cccnc5)n4)cc3)C2)o1 21.1 µM [inhibitor, single point]
O=C(c1ccc2cc[nH]c2c1)N1CCC(N2CC(OCC3CC3)C23CCCCC3)CC1 (stereo unspecified) 23.7 µM [inhibitor, single point]
COc1ccc(Nc2cc(C)c3c(O)cccc3n2)cc1 2.99 µM [inhibitor, full curve, poor fit]
COc1ccc2c(c1OC)C(=O)N1N=C(c3ccc(O)cc3)CC21 (stereo unspecified) 16.8 µM [inhibitor, partial curve]
CN(C)CCNC(=O)CCCn1c(=O)c2cccn2c2ccccc21 16.8 µM [inhibitor, single point]
CCOc1cc(C(=O)Nc2ccc3nc(Nc4cccc(Cl)c4)cc(C)c3c2)cc(OCC)c1OCC 1.88 µM [inhibitor, full curve]
COCCn1c(C)cc(C(=O)N2CCCC(Cc3noc(C4CC4)n3)C2)c1C (stereo unspecified) 16.8 µM [inhibitor, single point]
Cc1ccc(C)c(Cn2c(=O)n(CCCCC(=O)NCc3ccc4c(c3)OCO4)c(=O)c3ccccc32)c1 6.68 µM [inhibitor, partial curve]
Cc1ccc(-c2cc3c(=O)n(CCNC(=O)c4nn(C)c5ccccc45)ccn3n2)c(C)c1 21.1 µM [inhibitor, single point]
Cc1ccc(CN2CCc3oc(C)c(C(=O)NCCN4CCCCC4)c3C2)cc1 10.6 µM [inhibitor, partial curve]
O=C1N(Cc2cccc(Cl)c2)C[C@@H]2C[C@@H](c3cccc4ncccc34)N3CCC[C@@]123 16.8 µM [inhibitor, single point]
N#Cc1cccc(-c2n[nH]c3c2CC(=O)N(Cc2ccccc2)C3)c1 6.85 µM [inhibitor, full curve, poor fit]
Cc1cc(C)cc(Oc2nc3c(C)cccn3c(=O)c2/C=C(\C#N)c2nc3ccccc3s2)c1 0.0084 µM [inhibitor, full curve, poor fit]
O=c1[nH]c(N2CCOCC2)nc2c1CCN(Cc1ccc(Cl)c(F)c1)CC2 21.1 µM [inhibitor, single point]
COc1ccc(Oc2nc(-c3ccccn3)nc3ccccc23)cc1 2.99 µM [inhibitor, full curve]
O=C(CCc1ccccc1)N1CCCC(n2cc(-c3nc(-c4ccccc4)no3)nn2)C1 (stereo unspecified) 16.8 µM [inhibitor, single point]
O=C(Nc1ccncc1)Nc1cccc(Cl)c1 16.8 µM [inhibitor, single point]
CCCCN1C(=O)C(O)(CC(=O)c2ccc(C(C)(C)C)cc2)c2ccccc21 (stereo unspecified) 4.73 µM [inhibitor, full curve]
CCOC(=O)c1ccccc1NC(=O)Cn1c(N(C)Cc2ccccc2)nc(C)cc1=O 21.1 µM [inhibitor, single point]
CCOc1ccc(-n2c(=O)c3c(C)c(C)sc3n(CC(=O)N(CC)Cc3ccccc3)c2=O)cc1 21.1 µM [inhibitor, single point]
Oc1ccccc1C(Nc1nccs1)c1ccc2cccnc2c1O (stereo unspecified) 18.8 µM [inhibitor, single point]

Potency, inactive:
CN1CCN(c2ccc(-c3cccc(N)c3)nn2)CC1
COC(=O)[C@H](Cc1ccc(OC)cc1)NC(=O)[C@H]1CN(C(=O)Nc2ccccc2)CCN1C(=O)NC(C)C
CCCCCNC(=O)C1CCC(Cn2c(=O)c3sccc3n(CC(=O)N3CCCC3)c2=O)CC1 (stereo unspecified)
COc1ccc(C(=O)N[C@@H]2CCC[C@@H]2C(=O)NCc2ccc(C)o2)cn1
Cn1c(CN2CCCCC2)nnc1C1CCCN(C(=O)c2cocn2)C1 (stereo unspecified)
Cc1cccc(C)c1NC(=O)CN1C(=O)NC(c2ccccc2Cl)C2=C1COC2=O (stereo unspecified)
COc1cc(Cc2cnc(N)nc2N)cc(OC)c1OC
COc1ccc(S(=O)(=O)N2CCN(C(=O)c3cc(-c4ccccc4OC)n[nH]3)CC2)cc1
Cc1ccc(C(=O)NCc2nnc3c(-c4nc(C(C)C)no4)cccn23)cc1
CN1C(=O)CS(=O)(=O)C12CCN(C(=O)c1cc(F)ccc1Cl)CC2
CCn1c(=N)n(CC(O)c2cccs2)c2ccccc21 (stereo unspecified)
O=C(Nc1ccc(S(=O)(=O)NC2=NCCCCC2)cc1)c1ccco1
CN(C)c1ccc(CN2CCC3(C2)C(=NC2CCCC2)NC(=O)N3c2cccnc2)cc1 (stereo unspecified)
CC1(CNc2ccccc2)COc2ccc(C(=O)NCc3cccs3)cc2N1 (stereo unspecified)
O=C(NCC1CC1)c1cccc(OC2CN(CC3CC=CCC3)C2)c1 (stereo unspecified)
COCCNC(=O)[C@H]1C[C@H](Oc2ccccc2)CN1C(=O)c1ccccc1OC
Cc1cn2nc(C(=O)Nc3ccc4c(c3)OCCO4)cc2c(N2CCCC2)n1
CCOC(=O)c1noc2nc(C)n(CC(=O)NC(C)CC)c(=O)c12 (stereo unspecified)
O=C(Cn1c(-c2ccccc2)noc1=O)NCc1ccccc1
COc1ccc(O)c(-c2cc(-c3cccs3)[nH]n2)c1
COc1ccc(C(=O)N2CCC(C3CCN(S(C)(=O)=O)CC3)C2)c(OC)n1 (stereo unspecified)
CC1(CNc2ccccc2)COc2ccc(C(=O)NCCc3ccccc3)cc2N1 (stereo unspecified)

Potency, active:
CCOc1ccc2[nH]c3c(NCCN(C)C)ncnc3c2c1 16.8 µM
Cc1cc(N)c2cc(NC(=O)/C=C/c3ccccc3Cl)ccc2n1 1.88 µM
CCOC(=O)c1nnn(-c2nonc2N)c1-c1ccc(OC)cc1 5.31 µM
Cc1c(Cl)cccc1Nc1nn2c(=O)c3ccc(C(=O)NCCc4ccccc4)cc3nc2s1 7.5 µM
CCC(=O)C1=C(c2cccc([N+](=O)[O-])c2)N(C(=O)CC)n2c(nnc2-c2ccccc2)S1 5.31 µM
Cc1ccc(NC(=O)c2ccc(NCCCN3CCC(C)CC3)c([N+](=O)[O-])c2)cc1F 6.68 µM
COc1ccc(-n2c(/C=C(\C)O)nc(=O)c3c(C)cc(C)nc32)cc1 3.35 µM
COc1cccc(NC(=S)N2CCN(S(=O)(=O)c3ccc(F)cc3)CC2)c1 2.66 µM
COc1ccc(CN2CCC(CO)(CCCc3ccccc3)CC2)c(Cl)c1OC 8.41 µM
CCOC(=O)c1c(C)oc2c1C(=O)c1ccccc1C2=O 0.422 µM
CCCOc1ccc(-c2nonc2NC(=O)c2cc(OC)c(OC)c(OC)c2)cc1OCCC 5.96 µM

Activity change, negative = inhibition, inconclusive:
CCOCC1(C)COc2ccc(C(=O)Nc3cccc(Cl)c3)cc2N1 (stereo unspecified) -31.7% [inhibitor] [at 43.1 µM]
